Experimental data as given in the supplement of paper PMC10126150.
Sequences with one replicate were seen in a single cluster, so their values are uncertain.

system: ATP; test: switch fluorescence ratio, 500 uM ATP over buffer (Cy3 cluster intensity, sum of 5 cycles each) (fold (ratio)); higher = stronger signal-on switching upon ATP binding; sequences stand for … in TCGTCGGCAGCGTCAGATGTGTATAAGAGACAGTTTTTTTTTTTTTTTTTTTTTTTTT…TC; conditions: aptamer strand: ATP DNA aptamer (quencher-CACCTGGGGGAGTATTGCGGAGGAAGG + anchor), 100 nM annealed; ATP concentration: 500 uM; one replicate
Method in brief: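 The fluorescence ratio divides summed target-cycle Cy3 intensity by summed buffer-cycle Cy3 intensity for each cluster and is averaged per switch-domain sequence. Cy3-labelled switching-strand clusters on a modified Illumina MiSeq flow-cell were annealed to 100 nM quencher-labelled ATP aptamer, then imaged in selection buffer and again after 15 min with 500 uM ATP at 22 °C. Five such cycles were run, with NaOH stripping and re-annealing between them, and clusters outside 100-1000 RFU were excluded.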
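Further: ATP exposure 15 min at 22 °C before imaging.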

| Sequence | switch fluorescence ratio |
| --- | --- |
| TATAAGCGTC | 1.01 |
| TATAAGTCAA | 1.07 |
| TATACAAGCG | 1.01 |
| TATACAGCCA | 1.05 |
| TATACATATT | 1.05 |
| TATACCACCC | 1.2 |
| TATACCTACG | 1.4 |
| TATACGAC | 1.2 |
| TATACGAGTA | 0.995 |
| TATACGTATA | 1.05 |
| TATACTCTG | 1.05 |
| TATACTTTTG | 0.947 |
| TATAGAAGCA | 1.01 |
| TATAGAGGCA | 1 |
| TATAGCGTGG | 1.01 |
| TATAGCTACT | 1.14 |
| TATAGCTCTG | 0.952 |
| TATAGGCAGC | 0.989 |
| TATAGGCGAT | 0.994 |
| TATAGGGCGC | 1.04 |
| TATAGGT | 0.982 |
| TATATAGA | 0.998 |
| TATATAGGGC | 0.989 |
| TATATATCGT | 0.973 |
| TATATCCTCG | 1.07 |
| TATATCTATT | 1.04 |

| Sequence | switch fluorescence ratio |
| --- | --- |
| TATATGCGGT | 0.967 |
| TATATGCGTC | 1.01 |
| TATATTAT | 1 |
| TATATTCGGG | 1 |
| TATATTGCAG | 1.01 |
| TATCAATCCT | 1.07 |
| TATCACAGCA | 1.07 |
| TATCACGCG | 0.987 |
| TATCACGTTT | 1.02 |
| TATCATAAA | 1.01 |
| TATCATACG | 1.04 |
| TATCATAGGC | 1.05 |
| TATCATAGTA | 0.989 |
| TATCATCGCA | 1.07 |
| TATCATGAAC | 1.06 |
| TATCATTGAT | 1.03 |
| TATCATTTCA | 1.04 |
| TATCCAAGTG | 1.05 |
| TATCCCGAAA | 1.17 |
| TATCCCGCAT | 4.96 |
| TATCCGAATT | 1.01 |
| TATCCGGGAC | 1.38 |
| TATCCGTTAT | 1.1 |
| TATCGATGGG | 1.02 |
| TATCGGCAGG | 0.961 |
| TATCGGCCGG | 0.977 |

| Sequence | switch fluorescence ratio |
| --- | --- |
| TATCGGTATA | 1 |
| TATCGTACT | 1.11 |
| TATCGTATGG | 1.05 |
| TATCGTGCCG | 0.992 |
| TATCGTTGAC | 0.966 |
| TATCTACGCA | 1.99 |
| TATCTAGCTT | 1.03 |
| TATCTATTC | 0.943 |
| TATCTATTTC | 1.05 |
| TATCTCGGTT | 1.36 |
| TATCTGAGTT | 1.03 |
| TATCTGCTCC | 1.11 |
| TATCTGTACC | 0.977 |
| TATCTGTGGG | 0.985 |
| TATCTTAGCT | 1.03 |
| TATCTTAGT | 1.03 |
| TATCTTCACG | 1.03 |
| TATGAACTGG | 0.978 |
| TATGAATCGA | 0.979 |
| TATGACGGGC | 1.1 |
| TATGAGGCGT | 1.02 |
| TATGAGGTCG | 0.942 |
| TATGAGTAAA | 1 |
| TATGATACTT | 1.01 |
| TATGATTGAT | 0.994 |
| TATGCGTTC | 0.991 |

| Sequence | switch fluorescence ratio |
| --- | --- |
| TATGCTATTT | 0.966 |
| TATGGACCTT | 0.989 |
| TATGGAGGCG | 1.03 |
| TATGGCCAAC | 0.964 |
| TATGGCTAAC | 1.15 |
| TATGGGAA | 1.03 |
| TATGGGAAA | 0.991 |
| TATGGGAG | 0.944 |
| TATGGGCGCA | 1.07 |
| TATGGTCCCT | 1.05 |
| TATGGTGTGT | 0.983 |
| TATGGTGTTG | 0.965 |
| TATGGTTCCT | 1.04 |
| TATGTAGCA | 1.04 |
| TATGTATAGT | 0.985 |
| TATGTATGCT | 0.964 |
| TATGTATTTG | 1 |
| TATGTCACGC | 1.06 |
| TATGTGAAAC | 1.04 |
| TATGTGATCG | 0.998 |
| TATGTGCTCG | 1.03 |
| TATGTGGACC | 1.03 |
| TATGTGGCAT | 1.01 |
| TATGTGGCCT | 1.04 |
| TATGTGTTTG | 1.02 |
| TATTAAGCCC | 1 |

| Sequence | switch fluorescence ratio |
| --- | --- |
| TATTATAGC | 1.02 |
| TATTATCCTG | 1.01 |
| TATTATGATT | 0.995 |
| TATTATGGAC | 1 |
| TATTATTAGT | 1.04 |
| TATTATTCCT | 1.19 |
| TATTATTCGG | 0.956 |
| TATTCACATC | 0.977 |
| TATTCAGTAC | 1.09 |
| TATTCCCTGA | 1.01 |
| TATTCCGGGG | 1.11 |
| TATTCCGGGT | 0.994 |
| TATTCCGTAC | 2.01 |
| TATTCCGTCA | 1.05 |
| TATTCGGACT | 1.02 |
| TATTCTTTCG | 0.993 |
| TATTGAATAG | 0.966 |
| TATTGAATGC | 1.05 |
| TATTGCTAC | 2.1 |
| TATTGGACCT | 1.29 |
| TATTGGAGCC | 1.08 |
| TATTGGATAC | 1.17 |
| TATTGGGGC | 1.03 |
| TATTGGTAGT | 1.01 |
| TATTGTCTGC | 1 |
| TATTGTGAGC | 1.01 |

| Sequence | switch fluorescence ratio |
| --- | --- |
| TATTGTGCAA | 1.11 |
| TATTTAATCG | 0.993 |
| TATTTACAGA | 1.06 |
| TATTTACGGA | 1.05 |
| TATTTACGTG | 1.03 |
| TATTTAGCGG | 1.03 |
| TATTTAGTGG | 0.953 |
| TATTTCAGA | 1.04 |
| TATTTCCAGC | 1.06 |
| TATTTGCGAA | 0.977 |
| TATTTGTAGC | 1.04 |
| TATTTTATAC | 1.04 |
| TCAAAAAGGC | 1.04 |
| TCAAAAGTTA | 0.982 |
| TCAAACGGGT | 1.02 |
| TCAAAGAAGA | 0.979 |
| TCAAAGAGTA | 0.953 |
| TCAAAGCTTC | 1.23 |
| TCAAAGGGG | 1 |
| TCAAAGTTCA | 0.993 |
| TCAAATAGAG | 1.04 |
| TCAAATTGGA | 0.984 |
| TCAACAACCT | 1.33 |
| TCAACACCTT | 1.19 |
